The values that follow come from the supplement of paper PMC11417369.

Some of the results follow.

The subject of this experiment is PfSIP2 AP2 domain 1 (GST-tagged). As to the kind of experiment: gcPBM binding intensity (ln(normalized median fluorescence intensity)); higher = stronger DNA binding. The method, boiled down:
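Alexa488 anti-GST antibody, scanned at 488 nm, detected GST-tagged P. falciparum DNA-binding domains that had been expressed in E. coli and incubated for 1 h on an Agilent 4 × 180k array. The array carried primer-extended double-stranded 36-bp intergenic genomic probes and negative controls. Binding intensity is the highest Masliner-normalised natural-log median intensity across replicate spots of either orientation of each probe.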
For the sequence “ATATATAATTATTGAAGTACTTGTTCATAAAATGGT [XGTACX_site5656]”, the “gcPBM binding intensity (ln)” value came out at 7.16.

Take “TATATGAGCATAAAGACACACAAATAAAACCAAACA [CACACA_site3856]”: the “gcPBM binding intensity (ln)” value was found to be 7.08.

In the case of “AAAATAAAATGAAAACGTACATGATAAATTTTAATT [XGTACX_site4199]”, the “gcPBM binding intensity (ln)” value is 6.83.

Regarding “AGAACAATTCTGTGGTGTACCAAAAAAAATTTAATT [XGTACX_site8082]”, the “gcPBM binding intensity (ln)” value came to 6.93.

As for “TAAATGAATTTTACTATACACACGTATACATTTGTA [CACACA_site1210]”, the “gcPBM binding intensity (ln)” value was found to be 6.72.

As to “AAAATAAATAAATATACACACCATATTTATATTTTT [CACACA_site7361]”, the “gcPBM binding intensity (ln)” value amounted to 6.9.

On to “ATATTTAAATTTTGCACACGCATATGAAATTAGGAC [CACACA_site1035]”, for which the “gcPBM binding intensity (ln)” value stood at 7.54.

On to “TACTACACACATTCATGTACTTGATAAATTAATGAT [XGTACX_site6444]”, for which the “gcPBM binding intensity (ln)” value turned out to be 7.03.

As for “ATAACTAATATGAAATGTACCCATCAAAGTGTGCAT [XGTACX_site4463]”, the “gcPBM binding intensity (ln)” value was found to be 7.32.

“TAATTTGTTATTTATTGTACAAACATTATATGTTAA [XGTACX_site6637]”: the “gcPBM binding intensity (ln)” value was determined as 7.1.

Regarding “AAAATTAAAATACGTACACACCTTATCTTTTTGGCT [CACACA_site4311]”, the “gcPBM binding intensity (ln)” value was found to be 7.08.

Turning to “CATACATACATACATACACACATATATAAATATATG [CACACA_site7028]”, the “gcPBM binding intensity (ln)” value is 7.97.

For the sequence “TAAGTGATCGCATAATGTACATATTATTTATTATTT [XGTACX_site3061]”, the “gcPBM binding intensity (ln)” value was found to be 6.85.

Turning to “TACATTTAAAAAAAAACACACATATTTATATTTATA [CACACA_site7236]”, the “gcPBM binding intensity (ln)” value came out at 6.79.

In the case of “GGAAGGATATAACATACACACACACCCATATATATA [CACACA_site9376]”, the “gcPBM binding intensity (ln)” value is 7.7.

For the sequence “TTATGTATTTATTTATGTACTAATTGTATGCATATT [XGTACX_site6436]”, the “gcPBM binding intensity (ln)” value is 6.93.

For the sequence “CATATACATAGACACACACACACATAAATAAATATA [CACACA_site6749]”, the “gcPBM binding intensity (ln)” value came out at 7.27.

As for “TTTCCTGGTCAAGGGGTTACGGTTACGTCCTCTTGC [CACACA_negctrl_site856]”, the “gcPBM binding intensity (ln)” value came out at 6.5.

As for “ATACTTTATAAATACTAAAGTGTATTTTGTAATATA [CACACA_negctrl_site1710]”, the “gcPBM binding intensity (ln)” value came out at 6.76.

As to “ATTTGTATATATAATTGTACGCATATTCTATACGAT [XGTACX_site7367]”, the “gcPBM binding intensity (ln)” value was 6.94.

In the case of “AAAAATATGAAAGTAACTAAGTTGTTATTGATAACA [CACACA_negctrl_site1608]”, the “gcPBM binding intensity (ln)” value was 6.6.

Take “ACGTTAGGCTTATTTGCACACTTGTATTATAATTTT [CACACA_site1317]”: the “gcPBM binding intensity (ln)” value came out at 7.08.

As to “ATATTATCACAAGGTGGTACACAAAAAAAAAAAAAA [XGTACX_site8224]”, the “gcPBM binding intensity (ln)” value came out at 7.64.

As for “ATAAATATGGAGCACACACACATAAACATACAGATA [CACACA_site4395]”, the “gcPBM binding intensity (ln)” value is 7.19.

For the sequence “TACTTTCACATTAAATGTACGTATAGTTTCATTCTT [XGTACX_site8528]”, the “gcPBM binding intensity (ln)” value stood at 7.23.

Turning to “ATATTAAAAATATATACACACATATATATAAATATA [CACACA_site2257]”, the “gcPBM binding intensity (ln)” value was 6.9.

Take “TATATTTAAGTACATAAATAAGCCCATTTACATACA [CACACA_negctrl_site1224]”: the “gcPBM binding intensity (ln)” value is 7.17.

TTTGGAGAATTCATAGTGCATTTATTTATTGTTAAT: the “gcPBM binding intensity (ln)” value worked out at 7.97.

Take TTCTAAAATTATATAGTGCAATTATTTTATTTTTCT: the “gcPBM binding intensity (ln)” value came to 8.27.

In the case of “AAAAAAATAAAACACATACATATATGTATATATATA [GTGCAC_negctrl_site390]”, the “gcPBM binding intensity (ln)” value was found to be 8.29.

In the case of TAAATATATATATAAGTGCATTATATATATATATAA, the “gcPBM binding intensity (ln)” value is 8.97.

As for “ATTAATAATTATTATGGTACACATGTAACTACTCTC [XGTACX_site198]”, the “gcPBM binding intensity (ln)” value was determined as 7.06.

In the case of “ATCTCTTACATATTCACACACATATAAATAACTACA [CACACA_site6816]”, the “gcPBM binding intensity (ln)” value was determined as 7.62.

Turning to “ATATGATAGTTTATATGTACATAAATAAATACATAC [XGTACX_site2917]”, the “gcPBM binding intensity (ln)” value amounted to 7.33.

On to “AAAGAAAAAAAATAATGTACATATGTATTTGAGAAA [XGTACX_site3571]”, for which the “gcPBM binding intensity (ln)” value turned out to be 7.18.

Regarding “TGTAGAAGAACCCATGCATGCAGTATGAAAAAAAAA [TGCATGCA_site907]”, the “gcPBM binding intensity (ln)” value worked out at 6.9.

Take “AAAAAAAGAAAAAAACGTACATGAAAATTTTTTGTT [XGTACX_site5135]”: the “gcPBM binding intensity (ln)” value worked out at 6.77.

On to “CTATATAAAAAAATTGCACACATAAATATATACATA [CACACA_site8325]”, for which the “gcPBM binding intensity (ln)” value is 7.07.

In the case of “ATAAATCCCAAAACCTTGCAAGACAACGTTTGATCA [CACACA_negctrl_site1327]”, the “gcPBM binding intensity (ln)” value was found to be 6.67.

In the case of “GTTCTTTCAAATTATACACACCAAAAAAAAAAAAAA [CACACA_site5660]”, the “gcPBM binding intensity (ln)” value came to 7.36.

Regarding “TGATCAAGTAAGAAAAGTACAAAAAAAGTAAAAAAT [XGTACX_site6529]”, the “gcPBM binding intensity (ln)” value amounted to 7.19.

As to ATAAGTTTTTATTTTCTGCACTGTCGAATAATAGTT, the “gcPBM binding intensity (ln)” value amounted to 7.87.

In the case of “GATATGTTTTATTATGTTGATGATAACAGGTAGTTT [CACACA_negctrl_site356]”, the “gcPBM binding intensity (ln)” value came out at 6.95.

On to “ATGGATTATTTTTAAACATGCAGTAGTGATGAAAAA [TGCATGCA_site346]”, for which the “gcPBM binding intensity (ln)” value was determined as 6.96.

On to “AAAAAAAACATACATACACACACATAAATATATATA [CACACA_site8864]”, for which the “gcPBM binding intensity (ln)” value was determined as 7.42.
